The list shows a part of the results.

The target of this experiment is T1, OsWOX13 (Oryza sativa, UniProt Q5QMM3 1-267).
T1 sequence: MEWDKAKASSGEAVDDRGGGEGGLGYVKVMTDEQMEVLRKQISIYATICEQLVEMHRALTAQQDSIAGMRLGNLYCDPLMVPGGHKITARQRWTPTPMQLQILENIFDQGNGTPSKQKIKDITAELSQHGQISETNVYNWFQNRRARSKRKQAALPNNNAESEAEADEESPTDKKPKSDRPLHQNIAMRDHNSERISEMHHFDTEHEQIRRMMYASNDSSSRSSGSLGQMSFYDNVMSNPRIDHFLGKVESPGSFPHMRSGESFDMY
Nature of the experiment: protein-binding microarray (RPBM); PBS, 2% BSA, 51.3 ng/ul salmon testes DNA, 50 uM zinc acetate, 200 nM TF, 25 C, 1 h; high values mean tight binding. The settings on record: protein: recombinant; tags: N-terminal polyhistidine and DsRed monomer fusion (pET32a); label: CyDye5-dUTP incorporated in the synthesized complementary strand; 3' TTTTT single-stranded linker to array surface; dsDNA, one strand shown. Summed up:
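An Axon 4000B scanner gave the binding signal as per-feature fluorescence intensity in arbitrary units. This followed washing of a custom Agilent array that had been incubated for 1 h at 25 °C with 200 nM protein in PBS, 2% BSA, salmon testes DNA and 50 µM zinc acetate. The proteins were transcription factors fused at the N-terminus to polyhistidine and DsRed, expressed in E. coli BL21-CodonPlus and purified on Ni–NTA.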
As for “GTGTGATTGTGGGAAGGCTGGCCGCGTCGGGCATGCACGCCGGAGTCACCTAGTGCAG”, the binding signal is 15200 fluorescence intensity (a.u.).
Under “AAAATATGGAGATAATTGCTGCTAGTGGGTTGCAACTATTCGGAGTCACCTAGTGCAG” stands 4400 fluorescence intensity (a.u.); under “AGTCCATGATTAGCCATAAGTGCTATAGTAACCCACATGTCGGAGTCACCTAGTGCAG”, 20400 fluorescence intensity (a.u.); under “TTTTAGATAGAAGAAACTTTTCTTCTTGAATTCTTGACTGCGGAGTCACCTAGTGCAG”, 4720 fluorescence intensity (a.u.).
“ATTTGCTAATGACGGATTAATTAGATTTAATAAATTCATCCGGAGTCACCTAGTGCAG”: the binding signal is 39700 fluorescence intensity (a.u.).
For the sequence “AAATGATTTGCTAAGCAGTTATTCCAGAGTCTTAGTTAAGCGGAGTCACCTAGTGCAG”, the binding signal was 22800 fluorescence intensity (a.u.).
With “AATACAAATTAGTATATTTATTCACTAACTTATCTAGACACGGAGTCACCTAGTGCAG” the figure was 19200 fluorescence intensity (a.u.).
Consider “GCCTAATTACGCCACGATTTAACAATACAGTGCTACAGTACGGAGTCACCTAGTGCAG”, for which the binding signal was 30200 fluorescence intensity (a.u.).
For the sequence “TCCGAATATATATTAGTCAATTATACTATATTATCCTTCCCGGAGTCACCTAGTGCAG”, the binding signal was 4970 fluorescence intensity (a.u.).
Take “AAAGATTCCTAATTTAGATAACGTGTTTACACCACGACGGCGGAGTCACCTAGTGCAG”: the binding signal is 4840 fluorescence intensity (a.u.).
As to “ATAATAATTAATATTTCATTAATTATATGCTAACGAGTTTCGGAGTCACCTAGTGCAG”, the binding signal was 43400 fluorescence intensity (a.u.).
As for “GCGAGATTGGGGAGGACATGCTCACGGAGATTCTGGTGAGCGGAGTCACCTAGTGCAG”, the binding signal is 4190 fluorescence intensity (a.u.).
Consider “CGAATAGATGAATAGTAATGACATTTATCTAAAATGGCACCGGAGTCACCTAGTGCAG”, for which the binding signal is 7230 fluorescence intensity (a.u.).
For the sequence “AACAAATTATAGATTCCGCCTATAAACTGTGAGATAAATTCGGAGTCACCTAGTGCAG”, the binding signal is 4770 fluorescence intensity (a.u.).
For “GGAAAACAAATACACATAATTACGGCATAAACACACAGATCGGAGTCACCTAGTGCAG”, the binding signal is 3970 fluorescence intensity (a.u.).
With “TCATGATTTGAGACCTCCCGGCCACTTCAGGACGGGCATCCGGAGTCACCTAGTGCAG” the figure was 10600 fluorescence intensity (a.u.).
Regarding “CGTAAATAATGATTCACAACTTACCAAAATCTATTTAACTCGGAGTCACCTAGTGCAG”, the binding signal is 4400 fluorescence intensity (a.u.).
“CGTTAATAAGCACATGATTAAAGATGCCTAGGGTAATGAGCGGAGTCACCTAGTGCAG”: the binding signal was 17800 fluorescence intensity (a.u.).
“ATAAATTTATTAAACATAATTAATTTATCATTAACAAGCACGGAGTCACCTAGTGCAG”: the binding signal is 33400 fluorescence intensity (a.u.).
In the case of “GGTTAATTCCTATCTTCTGATTATATAATTTGCTGATCGTCGGAGTCACCTAGTGCAG”, the binding signal is 35500 fluorescence intensity (a.u.).
On to “CTTGGGATTAATTAAGTAATTCCTCCGTTTCATATTATAACGGAGTCACCTAGTGCAG”, for which the binding signal was 5010 fluorescence intensity (a.u.).
Under “TCGGATTGAGGTCTGAACTGGCAGATTCGGAGTTAAACCACGGAGTCACCTAGTGCAG” stands 3410 fluorescence intensity (a.u.); under “GCTCTGGTGTAATTGAGATCTTGCAGCACACGACTATCGTCGGAGTCACCTAGTGCAG”, 4510 fluorescence intensity (a.u.); under “TCTTTACTAATTAATTCTCCCTCCATTGGCTCATCACTGACGGAGTCACCTAGTGCAG”, 8620 fluorescence intensity (a.u.).
For “ACTAATAGATACGAGTAGGAAGTGGTGCTAGGAGAAGTTACGGAGTCACCTAGTGCAG”, the binding signal is 4070 fluorescence intensity (a.u.).
As to “GCTAAAATTATGTCACTGATATACTTATACGTGGATCGTACGGAGTCACCTAGTGCAG”, the binding signal is 19500 fluorescence intensity (a.u.).
As for “GAAGGTGTGATTATGGGATGTAGACTCTAGCCTGTTCCGCCGGAGTCACCTAGTGCAG”, the binding signal was 6640 fluorescence intensity (a.u.).
“TAATAATTGGATAAATTATTTTGTTCCTGTTTTCTGAAATCGGAGTCACCTAGTGCAG”: the binding signal is 45400 fluorescence intensity (a.u.).
Turning to “AACTTACTGATTGCATGAAGATTTAAAGGGTTGAATCAGTCGGAGTCACCTAGTGCAG”, the binding signal was 24400 fluorescence intensity (a.u.).
For “GACTTATAATTTTGGTGATTTCTCACTATTATCGCCTAGTCGGAGTCACCTAGTGCAG”, the binding signal is 16100 fluorescence intensity (a.u.).
On to “GCCCAGCCAAATTTCCCTTGACACGCACCTAAATTAGGCGCGGAGTCACCTAGTGCAG”, for which the binding signal is 4050 fluorescence intensity (a.u.).
“AAACCAATCAAGGGCTTGTTTAGGGAAGTTTCTAGCTACACGGAGTCACCTAGTGCAG”: the binding signal is 27200 fluorescence intensity (a.u.).
Regarding “TACTGGTTTATTTTACCAATCAATCAATTGTTCTCAAGCTCGGAGTCACCTAGTGCAG”, the binding signal is 17300 fluorescence intensity (a.u.).
With “ACAATTGAATGAACAGAAAACTGTGAAAATTATGGGACTACGGAGTCACCTAGTGCAG”, the binding signal was 8480 fluorescence intensity (a.u.).
Under “ATCTTTTGATAAGTATAATTATTTTCTAGTTAATCACACTCGGAGTCACCTAGTGCAG” stands 4780 fluorescence intensity (a.u.).
Take “ATAAACAATTAATATAACACATCGTACATTCATATTCCCTCGGAGTCACCTAGTGCAG”: the binding signal is 4680 fluorescence intensity (a.u.).
For the sequence “GTGTGTAATTGTTGCGTACGTCAATGTGGCAGATGAGAGGCGGAGTCACCTAGTGCAG”, the binding signal is 7360 fluorescence intensity (a.u.).
On to “AAATATGATTTTCTCCTGATATTTCACCATCCGTACCGCACGGAGTCACCTAGTGCAG”, for which the binding signal is 13900 fluorescence intensity (a.u.).
For “AGAGTAATTATGGTTAAAAGATTTGTCGATGTTACAGGGCCGGAGTCACCTAGTGCAG”, the binding signal is 29100 fluorescence intensity (a.u.).
With “GCTGTTTAAATTGCTGAAAATTCTTTTGGGTGCCAGAGTTCGGAGTCACCTAGTGCAG” the figure was 7880 fluorescence intensity (a.u.); with “TTCTGTAATTAGTTTATTTTATTAGTACCTGAACACCCCACGGAGTCACCTAGTGCAG”, 19300 fluorescence intensity (a.u.).
With “ACCACTTGATTGGCATGCGACAAACGGGTAGACATCCATCCGGAGTCACCTAGTGCAG”, the binding signal is 49000 fluorescence intensity (a.u.).

Source of the values: publication PMC7819943, “Rice protein-binding microarrays: a tool to detect cis-acting elements near promoter regions in rice”.
